This is an account of results in PMC4336329 (PLoS ONE, 2015).

Each structure is given as a SMILES string. Out of some 310,000 compounds screened, about 2,200 (0.71%) showed an effect of 50% or more. Effects have a minus sign here. This is one part of the list.

Sequence of human ether-à-go-go-related gene (hERG) potassium channel (Q12809 whole entry, looked up): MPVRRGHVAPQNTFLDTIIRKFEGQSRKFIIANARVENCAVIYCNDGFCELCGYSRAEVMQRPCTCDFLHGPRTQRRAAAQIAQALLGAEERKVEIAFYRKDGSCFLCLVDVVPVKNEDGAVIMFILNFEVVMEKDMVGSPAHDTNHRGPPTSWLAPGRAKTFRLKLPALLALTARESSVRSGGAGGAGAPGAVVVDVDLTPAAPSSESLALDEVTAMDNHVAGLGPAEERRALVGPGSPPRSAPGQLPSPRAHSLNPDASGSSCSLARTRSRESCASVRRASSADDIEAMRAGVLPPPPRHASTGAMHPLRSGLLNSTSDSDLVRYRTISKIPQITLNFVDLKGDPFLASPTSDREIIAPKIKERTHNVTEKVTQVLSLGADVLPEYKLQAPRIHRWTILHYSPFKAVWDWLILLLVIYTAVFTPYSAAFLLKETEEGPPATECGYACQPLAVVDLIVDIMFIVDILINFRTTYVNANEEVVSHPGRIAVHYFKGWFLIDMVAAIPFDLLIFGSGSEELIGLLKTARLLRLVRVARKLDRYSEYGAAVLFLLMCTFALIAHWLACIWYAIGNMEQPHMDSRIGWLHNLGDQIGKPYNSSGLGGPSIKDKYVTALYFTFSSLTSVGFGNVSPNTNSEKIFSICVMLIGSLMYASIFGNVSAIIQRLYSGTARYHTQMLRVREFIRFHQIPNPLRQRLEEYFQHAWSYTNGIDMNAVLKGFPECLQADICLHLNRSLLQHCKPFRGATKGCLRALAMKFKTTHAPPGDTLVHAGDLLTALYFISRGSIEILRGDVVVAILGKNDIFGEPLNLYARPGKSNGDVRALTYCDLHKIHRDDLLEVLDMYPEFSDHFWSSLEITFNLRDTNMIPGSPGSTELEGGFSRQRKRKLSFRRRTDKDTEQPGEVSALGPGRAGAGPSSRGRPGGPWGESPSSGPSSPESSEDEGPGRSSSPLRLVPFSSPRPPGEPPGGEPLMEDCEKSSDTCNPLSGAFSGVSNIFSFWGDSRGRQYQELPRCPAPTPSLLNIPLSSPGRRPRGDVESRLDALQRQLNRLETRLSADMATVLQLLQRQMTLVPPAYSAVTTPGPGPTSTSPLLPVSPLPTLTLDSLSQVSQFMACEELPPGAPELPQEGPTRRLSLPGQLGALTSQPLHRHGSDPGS

This assay addresses human ether-à-go-go-related gene (hERG) potassium channel (human, UniProt Q12809). Kind of assay: primary screen, population patch clamp on CHO cells stably expressing hERG.
Regarding `c1cc(C(c2nnnn2C2CCCC2)N2CCOCC2)ccn1` (stereo not drawn), the “hERG current change (%, negative = inhibition) at 1uM” value was determined as 0.724%. The result for `COC(=O)c1ccc(N=NN2CCCCCC2)cc1` reads 11.2%. Turning to `Cc1ccc(Nc2nc(N)nc(CN3CCCCCC3)n2)cc1`, the “hERG current change (%, negative = inhibition) at 1uM” value was -45.2%. On to `CC(C)(C)c1ccc(NC(=O)Nc2ccc3ccccc3n2)cc1`, for which the “hERG current change (%, negative = inhibition) at 1uM” value came out at 12.4%. The result for `CCC(C)NC(=S)N(Cc1cc2cc(C)ccc2n2nnnc12)CC(C)(C)NC(C)C` (stereo not drawn) reads 14%; that for `COc1ccccc1NC(=S)N(CCCN(C)C)Cc1cc2cc3c(cc2[nH]c1=O)OCO3`, -3.81%. With `Oc1ccc(C=Nc2ccc(N3CCOCC3)cc2)c(O)c1`, the “hERG current change (%, negative = inhibition) at 1uM” value is 11.8%.

With `COc1ccc(-c2csc3nc(-c4cccnc4)nc(Cl)c23)cc1OC`, the “hERG current change (%, negative = inhibition) at 1uM” value worked out at 9.63%. The result for `CN1/C(=c2/s/c(=C3/C(=O)N(c4ccccc4)NC3=Nc3ccccc3)n(C)c2=O)C(C)(C)c2ccccc21` reads 13.9%; that for `O=C(NCCc1ccccc1)c1ccc2c(c1)OCCO2`, 16.9%.

On to `O=C1CC(C(F)(F)C(F)(F)C(F)(F)C(F)(F)F)=Nc2ccccc2N1`, for which the “hERG current change (%, negative = inhibition) at 1uM” value came to 10.4%.

With `COc1ccc(OC(C)C(=O)NC2CCCCCCC2)cc1` (stereo not drawn), the “hERG current change (%, negative = inhibition) at 1uM” value stood at 14.6%.

Regarding `C=CCn1c(SCC(=O)c2ccc(O)c(O)c2)nnc1-c1ccc(OC)cc1`, the “hERG current change (%, negative = inhibition) at 1uM” value was 12.7%. The result for `COc1cc(OC)nc(Oc2cccc(C(F)(F)F)c2)n1` reads 7.75%; that for `NC(=O)CSc1nnc(-c2cccnc2)n1CCc1ccccc1`, 9.9%; that for `COC(=O)c1ccc(NS(=O)(=O)c2ccccc2)o1`, 17.9%. Turning to `Cc1cc(OC(C)C(=O)NCC2CCC(C(=O)O)CC2)c2c(C)c(C)c(=O)oc2c1` (stereo not drawn), the “hERG current change (%, negative = inhibition) at 1uM” value amounted to 6.75%. For `COc1ccc(S(=O)(=O)N2CC(O)C[C@H]2C(=O)OCC(=O)N2CCCCCC2)cc1` (stereo partly drawn), the “hERG current change (%, negative = inhibition) at 1uM” value is 23.1%.

For the compound `Cc1cc(Nc2c(C)cccc2C)n2nc(C)nc2n1`, the “hERG current change (%, negative = inhibition) at 1uM” value is 11.2%. Turning to `Cc1[nH]c2ccccc2c1N=Nc1ccccc1F`, the “hERG current change (%, negative = inhibition) at 1uM” value is 7.58%. In the case of `N#Cc1nc(Cc2ccccc2)oc1NCCN1CCOCC1`, the “hERG current change (%, negative = inhibition) at 1uM” value is given as -0.875%. The result for `Cc1ccc(C2CC(=O)Nc3cc4c(cc32)OCCO4)s1` (stereo not drawn) reads 11.7%; that for `Cc1ccccc1OCCC(=O)Nc1ccc2c(C)cc(=O)oc2c1`, 16.7%; that for `COc1ccc(/C=N/NC(=O)c2ccc(NS(=O)(=O)c3cccs3)cc2)cc1`, 8.83%.

Turning to `COc1ccc(CN(Cc2ccc(C(=O)O)cc2)C(=S)Nc2ccccc2F)cc1OC`, the “hERG current change (%, negative = inhibition) at 1uM” value turned out to be 9.57%. Regarding `COc1cc(OC)c(NC(=O)CCNS(=O)(=O)c2cc(Br)cnc2N)cc1Cl`, the “hERG current change (%, negative = inhibition) at 1uM” value is given as 11.5%. In the case of `CC(C)=NNc1nc2c(c(=O)n(C)c(=O)n2C)n1CCc1ccccc1`, the “hERG current change (%, negative = inhibition) at 1uM” value came to 6.12%. The result for `Cc1ccc(S(=O)(=O)NC(=O)c2cc(C)n(-c3ccc(N(C)C)cc3)c2C)cc1` reads -4.43%; that for `CCCNC(=O)C(NS(=O)(=O)c1ccc2c(c1)c(=O)n(C)c(=O)n2C)c1ccccc1` (stereo not drawn), 7.45%.

Regarding `Nc1ccc(SCc2nc3cccc4c3n2CCC4)cc1`, the “hERG current change (%, negative = inhibition) at 1uM” value was 2.14%.

With `O=C(c1cc(-c2ccc(Cl)cc2)on1)N1CCCC1`, the “hERG current change (%, negative = inhibition) at 1uM” value came to 8.28%. The result for `Cc1cc(SCc2c(F)cccc2Cl)nc(=O)[nH]1` reads 17.9%; that for `CCc1ccc(/C=C2\CN(CC)Cc3c2nc2ccccc2c3C(=O)O)cc1`, 11%. The result for `O=C(NCC1CCCCC1)c1cccc(Br)c1` reads -0.514%. The result for `COc1ccccc1-c1nc(C#N)c(N2CCC(C(N)=O)CC2)o1` reads 8.21%; that for `O=C(NC1CCCc2c1cnn2-c1cc(F)cc(F)c1)c1ccccn1` (stereo not drawn), 2.28%; that for `Cc1csc(NC(=O)CSc2nnc(C)s2)n1`, 3.04%. On to `CN1C(=O)Cc2cc(S(=O)(=O)N3CCN(c4ccc(Cl)cc4)CC3)ccc21`, for which the “hERG current change (%, negative = inhibition) at 1uM” value came out at 7.62%. The result for `COc1cc(CNCCc2ccc(S(N)(=O)=O)cc2)ccc1OCC(=O)NC(C)(C)C.Cl` reads 9.9%. The result for `O=C(O)c1ccc(-n2c(=O)c3ccccc3c3ccccc3c2=O)cc1` reads 13.5%; that for `CCC(C(=O)NC1CCCC1)N(C(=O)Cn1nnc(-c2ccc(OC)c(OC)c2)n1)c1cccc(O)c1` (stereo not drawn), 6.72%. The result for `CCOC(=O)c1cn[nH]c1NC(=S)Nc1ccccc1` reads 8.28%; that for `Cc1cccc(N=c2c([N+](=O)[O-])nn(-c3ccc(Cl)cc3)n2O)c1`, 11.7%; that for `COc1cc2[nH]c(C(=O)Nc3ccc4c(c3)OCCO4)cc2c(OC)c1OC`, 14.6%. Consider `COc1cccc(NS(=O)(=O)c2csc(C(N)=O)c2)c1`, for which the “hERG current change (%, negative = inhibition) at 1uM” value turned out to be 19.7%.

`COC(=O)c1sc(=S)n(-c2ccc(Cl)cc2)c1C`: the “hERG current change (%, negative = inhibition) at 1uM” value is given as 13.7%. The result for `CCN(CC)CCN1C(=O)C(O)=C(C(=O)c2ccc(C)o2)C1c1ccccn1` (stereo not drawn) reads 7.87%; that for `O=C(NCc1cccs1)NC1CCCCC1`, 6.32%. As for `CC(C)C(=O)Nc1nnc(CCN2CCOCC2)s1`, the “hERG current change (%, negative = inhibition) at 1uM” value is on record as -0.579%. In the case of `CN1CCN(C(=O)C2=C[C@@H](C3CCCCC3)C[C@@H](OCc3ccc(CO)cc3)O2)CC1`, the “hERG current change (%, negative = inhibition) at 1uM” value was 3.86%. In the case of `O=C(CC1Nc2ccccc2NC1=O)NCC1COc2ccccc2O1` (stereo not drawn), the “hERG current change (%, negative = inhibition) at 1uM” value was 8.99%. Take `COc1ccc(CNc2nc3ccccc3n2C(C)C)c(O)c1`: the “hERG current change (%, negative = inhibition) at 1uM” value amounted to 10.3%. The result for `O=C(NCCc1ccccc1)c1cc(-c2ccc3c(c2)OCO3)on1` reads 4.69%; that for `COc1ccccc1C(=O)N1CCc2ccccc21`, 11.3%. Regarding `Cc1ccc(NC(=O)CN2CCN(CCN=CC3=C(O)CC(c4ccc(C)cc4)CC3=O)CC2)cc1` (stereo not drawn), the “hERG current change (%, negative = inhibition) at 1uM” value is -0.746%. The result for `Cn1nc2c(c1C(=O)N1CCCC(C(=O)c3cc(F)ccc3F)C1)CCCC2` (stereo not drawn) reads 10.8%. Consider `O=C(Nc1ccc(Nc2ccccc2)cc1)c1ccccc1`, for which the “hERG current change (%, negative = inhibition) at 1uM” value stood at 3.32%.
